Laboratory results taken from the RNAGym collection of RNA variant scans (doi:10.7554/elife.90254).
The source gives no read counts; variants with many changes may rest on few reads.

B1: LINE1-mini (parent)
chain: GGCAGAGCUCAACACAGCGUGGCAAAGUGGCUGUGGCUAGACUGCC

Variants of: B1
Test: self-cleavage, relative activity (ratio to wild type); higher = more cleavage; in vitro, sequencing; the parent is a self-cleaving ribozyme

Variant	self-cleavage
GGCAGAGCUCAUUACAGCGUGGCAAAGUGGCAGUGUCUAGACUGCC [A12U C13U U32A G36U]	0.03
GGCAGAGCUCAAAUCAGCGUGGCAAAGUGGCUGUGGCUCGACUGCC [C13A A14U A39C]	0.07
GGCAGAGCUCAUCACAGCGUGGCAAAGUGGCUGUGGCUAUACAGCC [A12U G40U U43A]	0.08
GGCAGAGCUCAUCACAGCGUGGCAAAGUGGCUGUUGCUAGACUGGC [A12U G35U C45G]	0.03
GGCAGAGCUCAUCACAGCGUGGCAAAGUGGCUCUGUCUAGACUGCC [A12U G33C G36U]	0.02
GGCAGAGCUCAUCACAGCCUGGCAAUGUGUUUGGGGCUAGACUGCC [A12U G19C A26U G30U C31U U34G]	0.01
GGCAGAGCUCAUCACAGCGUGGUAAACUGGCUGUGGUUCGACUGCC [A12U C23U G27C C37U A39C]	0.01
GGCAGAGCUCAUCAAAGCGUGGCAAAGUGGCUGUGGCUAGAUUGCC [A12U C15A C42U]	0.04
GGCAGAGCUCAUCACAGCGUGUCAAUGUGGCUGUGGCUAGACUGCC [A12U G22U A26U]	1.13
GGCAGAGCUCAUCACAGCGGGGCAAAGUGGCUGUGGCUAGACCACC [A12U U20G U43C G44A]	0.03
GGCAGAGCUCAUCACAGCGUGGCAAAGUUGCUGUGGCAAGACUGCU [A12U G29U U38A C46U]	0.09
GGCAGAGCUCAUCACAGCGUGGCAAACUGGCUGUGGCUAGACUGCA [A12U G27C C46A]	0.03
GGCAGAGCUCAUCACAGCGUGGCAAAUUUGCUGUGGCUAGACUGCC [A12U G27U G29U]	0.14
GGCAGAGCUCAUCACAGCGUGGCAAAGUGGAUGUGGCUAGACAGCC [A12U C31A U43A]	0.03
GGCAGAGCUCAAAACGGCGUGGCAAAGUGGCUGUGGCUAGACUGCU [C13A A16G C46U]	0.04
GGCAGAGCUCAUCACAGCGUGGCAAGGUGGCUAUGGCUAGACUGCC [A12U A26G G33A]	0.02
GGCAGAGCUCAUCACAGCGUGGCAAAGUGGCUGUGCCUAGACCGCC [A12U G36C U43C]	0
GGCAGAGCUCAUCACAGCGUGCCAAAGUGGCUGUGGCUAGACAGCC [A12U G22C U43A]	0.01
GGCAGAGCUCAUCAGAGCGUGGCAAAGUUGCUGUGGCUAGCCUGCC [A12U C15G G29U A41C]	0.05

Variant	self-cleavage
GGCAGAGCUCAUCACAGCGUGGCAAAGUGGCUGUGCCUAGACUACC [A12U G36C G44A]	0.05
GGCAGAGCUCAUUUCAGCGUGGCAAAGUGGCUGUGGCUAGACUGCC [A12U C13U A14U]	0.03
GGCAGAGCUCAUCACAGCGUCGCAAAGUGGCUGUGGUUAGACUGCC [A12U G21C C37U]	0.01
GGCAGAGCUCAUCACAGCGUUGCAAAGUGGCUGUAGCUAGACUGCC [A12U G21U G35A]	0.08
GGCAGAGCUCAUCACAGCGUGGCAAUGGGGCAGUGGCUAGACUGCC [A12U A26U U28G U32A]	0.02
GGCAGAGCUCAUCACAGAGUGACAAAGUGGCUGUGGCUAGACUGCC [A12U C18A G22A]	0.09
GGCAGAGCUCAUCACAUCGUGGUAAAGUGGCUGUGGCUAGACUGCC [A12U G17U C23U]	0.05
GGCAGAGCUCAUCACAGCGUGGCAAAGUAGCUGUGGCGAGAAUGCC [A12U G29A U38G C42A]	0
GGCAGAGCUCAUCACAGCGUGGCAAAGUGGCGGUGGAUAGACUGCC [A12U U32G C37A]	0.02
GGCAGAGCUCAUCACAGCGUGGCAAAGGGGCUGUGGGUAGACUGCC [A12U U28G C37G]	0.01
GGCAGAGCUCAAAACUGCGUGGCAAAGUGGCUGUGGUUAGACUGCC [C13A A16U C37U]	0.26
GGCAGAGCUCAUCAUAGCGUGGCAAUGUGGAUGUGGCUAGAAUGCC [A12U C15U A26U C31A C42A]	0.01
GGCAGAGCUCAUCACAGAGUGGCAAAGUGGCUGUGGCUAGACCGCC [A12U C18A U43C]	0.01
GGCAGAGCUCAAAACUGCGUGGCAAAGUGGCUAGGGUUAGACUGCC [C13A A16U G33A U34G C37U]	0.06
GGCAGAGCUCAUCAGAGCGUGGCAAAGUGGCUGUGGCAUGACUGCC [A12U C15G U38A A39U]	0.01
GGCAGAGCUCAAAGUAGCGUAGCAAAGUGGCUGUGGCUAGACUGCC [C13A A14G C15U G21A]	0.02
GGCAGAGCUCAAAGCAGUGUGGCAAAGUGGCUGUGGCUAGACUCCC [C13A A14G C18U G44C]	0.06
GGCAGAGCUCAUCACAGCGUGUCAAUGUGGCUGUGGCAAGACUGCC [A12U G22U A26U U38A]	0.13
GGCAGAGCUCAAAGCCGAGUGGCAUAGUUGCUGUGGCUAGACUGCC [C13A A14G A16C C18A A25U G29U]	0.13

Variant	self-cleavage
GGCAGAGCUCAAAACUGCGUGGCAAAGUGGCUGUGACUAGACUGCC [C13A A16U G36A]	0.1
GGCAGAGCUCAUCACAGGGUGGCAAAGUGGCUGUGGCAAAAUUGCC [A12U C18G U38A G40A C42U]	0.02
GGCAGAGCUCAAAACUACGUGGCAAAGUGCCUGUGGAUAGACUGCC [C13A A16U G17A G30C C37A]	0.06
GGCAGAGCUCAUCACAGCAUGGCAAAGUGGCUGAGGCUAGACUGCC [A12U G19A U34A]	0.06
GGCAGAGCUCAUCACAGCGUGGAAAAGUGGCUGUCGCUAGACUGUC [A12U C23A G35C C45U]	0.11
GGCAGAGCUCAUUACAGCGUGGCAAAUUGGCUGUGGCUAGACUGCC [A12U C13U G27U]	0.16
GGCAGAGCUCAUCACAGCCUGUCAAAGUGGGUGUGGCUAGACUGCC [A12U G19C G22U C31G]	0.03
GGCAGAGCUCAUCACAGCUUGGCAAAGUGGCUGUGGCUAGACUCCC [A12U G19U G44C]	0.09
GGCAGAGCUCAUCACAGCGUGCCAAAGCGGCUGUGGCUAGACUGAC [A12U G22C U28C C45A]	0.03
GGCAGAGCUCAUCACAGCGUGGCAAAGUGGCGGCGGCUAGACUGCC [A12U U32G U34C]	0.09
GGCAGAGCUCAUCACAGCGUGGCAAAGUGCCUGUGGCUAGUCUUCC [A12U G30C A41U G44U]	0.08
GGCAGAGCUCAUCACAGCGUUGCAAAGUGGCUAUGGCUAGAAUGCC [A12U G21U G33A C42A]	0.42
GGCAGAGCUCAUCACAGCGUGGCAAAGUGGCUGGGGCUAGACUUCC [A12U U34G G44U]	0.04
GGCAGAGCUCAUCACAGCGUGUCAAAGUGGCUGUGGGUAGCCUGCC [A12U G22U C37G A41C]	0
GGCAGAGCUCAUCACAAAGUGGCAAAGUGGCUGUUGCUAGACUGCC [A12U G17A C18A G35U]	0.02
GGCAGAGCUCAAACCAGCGUGUCAAAGUGGCUGUGGCUAGACUGCC [C13A A14C G22U]	0.06
GGCAGAGCUCAUCACAGCGUAUCAAAGUGGCUGCGGCUAUACUGCC [A12U G21A G22U U34C G40U]	0.04
GGCAGAGCUCAAAACGGCGUGGCAAAGUGGCUGUGGCUAGACUGAC [C13A A16G C45A]	0.04
